Over roughly 81,000 sequences, “one-hybrid fitness for binding parS DNA” has its median near -0.17; the highest 2% begin near 0.51. This is one part of the list.
B1: Caulobacter ParB omega fusion; a variant is named by its letters at X, in order, B8GW30 (parent)
chain: MESVVVGEPGMSEGRRGLGRGLSALLGEVDAAPAQAPGEQLGGSREAPIEILQRNPDQPRRTFREEDLEDLSNSIREKGVLQPILVRPSPDTAGEYQIVAGERAWRAAQRAGLKTVPIMVRELDDLAVLEIGIIENVQRADLNVLEEALSYKVLMEKFERTQENIAQTIGKSXSHVANXMRLLXLPDEVQSYLVSGELTAXHARAIAAAADPVALAKQIIEGGLSVRETEALARKAPNLSAGKSKGGRPPRVKDTDTQALESDLSSVLGLDVSIDHRGSTGTLTITYATLEQLDDLCNRLTRGI

Variants of: B1
Experiment: one-hybrid fitness for binding parS DNA (scaled: cognate 1, non-cognate 0); higher = stronger binding
Details: with parS DNA site
Method in brief: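 Fitness here means the log change in variant-to-wild-type read ratio between plasmids sequenced before and after selection. That scale was set so cognate equals 1 and non-cognate equals 0. The selection was a bacterial one-hybrid screen of Caulobacter ParB libraries, four specificity codons randomised, in E. coli USO carrying a HIS3 reporter with the site 19 bp from the promoter, grown 48 hours at 37°C on M9-minus-histidine with 0.1 mM IPTG and 5 mM 3-AT.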

Variant	one-hybrid fitness for binding parS DNA
MCMS	0.201
HVQA	≤ 0.2
QKMV	≤ 0.2
QKDG	≤ 0.2
PAAA	≤ 0.2
QVKL	≤ 0.2
TIFW	≤ 0.2
RAQQ	≤ 0.2
VMNP	≤ 0.2
RMTC	0.985
QDHE	≤ 0.2
TPAS	≤ 0.2
AVPY	≤ 0.2
EIHH	≤ 0.2
HLLW	≤ 0.2
SCGS	≤ 0.2
FSLV	≤ 0.2
MVRE	≤ 0.2
MLHM	≤ 0.2
LNAL	≤ 0.2
MHQY	≤ 0.2
AFID	≤ 0.2
FRRY	≤ 0.2
PLAM	≤ 0.2

Variant	one-hybrid fitness for binding parS DNA
HHFT	≤ 0.2
VGFT	≤ 0.2
QPLE	≤ 0.2
AHCH	≤ 0.2
RHVW	≤ 0.2
DSTD	≤ 0.2
IAGY	≤ 0.2
KIGF	≤ 0.2
LQSM	≤ 0.2
RETA	≤ 0.2
LQPV	≤ 0.2
RNYH	≤ 0.2
RQDC	0.863
ANPS	≤ 0.2
QHLD	≤ 0.2
RKAA	0.62
AIAT	≤ 0.2
KHEV	≤ 0.2
DRKC	≤ 0.2
NLKH	≤ 0.2
IVSW	≤ 0.2
PHMG	≤ 0.2
RLIA	0.592
PSDM	≤ 0.2

Variant	one-hybrid fitness for binding parS DNA
VRMG	≤ 0.2
PYGH	≤ 0.2
RSKP	≤ 0.2
CPTP	≤ 0.2
WCNV	≤ 0.2
DVTF	≤ 0.2
FLKD	≤ 0.2
INHF	0.369
RIAA	0.62
QKIS	≤ 0.2
QIGD	≤ 0.2
QTSW	≤ 0.2
AARW	≤ 0.2
QYVI	≤ 0.2
LYPQ	≤ 0.2
YGFC	≤ 0.2
RTQA	0.627
RSIM	≤ 0.2
INTR	≤ 0.2
FRTR	≤ 0.2
RMCK	≤ 0.2
RHES	0.962
CWRL	≤ 0.2
GLMC	≤ 0.2

Variant	one-hybrid fitness for binding parS DNA
TNSH	≤ 0.2
TGAT	≤ 0.2
PKTT	≤ 0.2
IAQN	≤ 0.2
DTKH	≤ 0.2
TDLQ	≤ 0.2
RATC	0.982
SATL	≤ 0.2
GSLV	≤ 0.2
GFTY	≤ 0.2
MGFC	≤ 0.2
YLRD	≤ 0.2
TWVV	≤ 0.2
SVAV	≤ 0.2
QLTI	≤ 0.2
ATTC	≤ 0.2
HHPA	≤ 0.2
NRAE	≤ 0.2
FPNT	≤ 0.2
NCAP	≤ 0.2
PVLI	≤ 0.2
GYGS	≤ 0.2
QMAE	≤ 0.2
NCAV	≤ 0.2

Variant	one-hybrid fitness for binding parS DNA
KNRG	≤ 0.2
VIMC	≤ 0.2
KAYC	≤ 0.2
NMVF	≤ 0.2
PTGS	≤ 0.2
QWSR	≤ 0.2
NSAW	≤ 0.2
NMIA	≤ 0.2
TSHS	≤ 0.2
GSTA	≤ 0.2
IEMF	≤ 0.2
WPDT	≤ 0.2
SIPN	≤ 0.2
YRTC	0.228
TGNH	≤ 0.2
SPTM	≤ 0.2
RKVG	0.942
MAAS	≤ 0.2
TLVT	≤ 0.2
FRQC	≤ 0.2
PTGY	≤ 0.2
VSNV	≤ 0.2
VTRW	≤ 0.2
AGNS	≤ 0.2

Variant	one-hybrid fitness for binding parS DNA
LVGS	≤ 0.2
QFDN	≤ 0.2
VSTN	≤ 0.2
VQRL	≤ 0.2
PAVV	≤ 0.2
CNCR	≤ 0.2
PRPT	≤ 0.2
AFYL	≤ 0.2
SPEI	≤ 0.2
IMPS	≤ 0.2
YAAT	≤ 0.2
MSKM	≤ 0.2
MNTE	≤ 0.2
PVNV	≤ 0.2
TDPM	≤ 0.2
ATAW	≤ 0.2
HFHR	≤ 0.2
HCQW	≤ 0.2
YLPA	≤ 0.2
YCDC	≤ 0.2
VFGG	≤ 0.2
EKLR	≤ 0.2
RACI	≤ 0.2
PWRR	≤ 0.2

Variant	one-hybrid fitness for binding parS DNA
GATH	≤ 0.2
AAPA	≤ 0.2
CRYR	≤ 0.2
SDEY	≤ 0.2
AANG	≤ 0.2
ARRA	≤ 0.2
RNDG	0.679
KRGK	≤ 0.2
ARHS	≤ 0.2
QQVG	≤ 0.2
RRWT	0.682
VDTH	≤ 0.2
DYGF	≤ 0.2
NYFC	≤ 0.2
YRRM	≤ 0.2
GICP	≤ 0.2
QVAL	≤ 0.2
HLKD	≤ 0.2
RMRE	≤ 0.2
AKFY	0.303
LVEC	≤ 0.2
AKMR	≤ 0.2
DAPT	≤ 0.2
ALMV	≤ 0.2

Variant	one-hybrid fitness for binding parS DNA
STKM	≤ 0.2
AHSL	≤ 0.2
RSLN	0.443
VKMT	≤ 0.2
AAGC	≤ 0.2
IISS	≤ 0.2
KLYS	≤ 0.2
WLEG	≤ 0.2
FMSV	≤ 0.2
HLVV	≤ 0.2
LALR	≤ 0.2
LRDK	≤ 0.2
HQRT	≤ 0.2
PPYF	≤ 0.2
ECTR	≤ 0.2
KDSW	≤ 0.2
AKAS	≤ 0.2
CRDC	≤ 0.2
SLIP	≤ 0.2
PTRV	≤ 0.2
SEDW	≤ 0.2
TQTR	≤ 0.2
FIRA	≤ 0.2
QIHF	≤ 0.2

Variant	one-hybrid fitness for binding parS DNA
AQPY	≤ 0.2
QQIF	≤ 0.2
QMSA	≤ 0.2
WPRY	≤ 0.2
PLTH	≤ 0.2
DSLG	≤ 0.2
SLIV	≤ 0.2
VLLG	≤ 0.2
HNWG	≤ 0.2
YSAM	≤ 0.2
GYEG	≤ 0.2
CHQT	≤ 0.2
WQVS	≤ 0.2
SQEC	≤ 0.2
GGMR	≤ 0.2
SCTS	≤ 0.2
RAKL	≤ 0.2
SVFI	≤ 0.2
PRIM	≤ 0.2
NVRR	≤ 0.2
LTAK	≤ 0.2
RFRN	0.429
CQYT	≤ 0.2
VENG	≤ 0.2

Variant	one-hybrid fitness for binding parS DNA
PISR	≤ 0.2
HRKN	≤ 0.2
MKTC	≤ 0.2
TYPL	≤ 0.2
SDQG	≤ 0.2
VKCR	≤ 0.2
HGTI	≤ 0.2
WTCV	≤ 0.2
GFAG	≤ 0.2
GWCC	≤ 0.2
PFFE	≤ 0.2
AQSS	≤ 0.2
PFYW	≤ 0.2
CRVN	≤ 0.2
VLNL	≤ 0.2
GGRH	≤ 0.2
WDYG	≤ 0.2
GEIR	≤ 0.2
SGVS	≤ 0.2
AAGF	≤ 0.2
TQLP	≤ 0.2
PRGT	≤ 0.2
SRIS	≤ 0.2
SREM	≤ 0.2

Variant	one-hybrid fitness for binding parS DNA
TGAW	≤ 0.2
YASS	≤ 0.2
RWLN	0.313
SHIC	≤ 0.2
SKFG	≤ 0.2
QTQG	≤ 0.2
PVMA	≤ 0.2
ADNT	≤ 0.2
DGPY	≤ 0.2
TPYM	≤ 0.2
RKDL	≤ 0.2
LPTF	≤ 0.2
RCSC	0.961
EYLR	≤ 0.2
SQAI	≤ 0.2
RCNL	≤ 0.2
RFEF	≤ 0.2
MWHS	≤ 0.2
LMIT	≤ 0.2
LALM	≤ 0.2
QSIF	≤ 0.2
LTNQ	≤ 0.2
FPTH	≤ 0.2
IDGR	0.279

Variant	one-hybrid fitness for binding parS DNA
VHDF	≤ 0.2
AMTF	≤ 0.2
EFTT	≤ 0.2
TVNS	≤ 0.2
RVCM	0.382
LNAV	≤ 0.2
QMEG	≤ 0.2
RVSD	≤ 0.2
MALP	≤ 0.2
RTQK	≤ 0.2
QAAW	≤ 0.2
QKER	≤ 0.2
VARP	≤ 0.2
CMEC	≤ 0.2
VVCT	≤ 0.2
GWMI	≤ 0.2
PKGY	≤ 0.2
QMMA	≤ 0.2
QTKG	≤ 0.2
RPEK	≤ 0.2
TQMI	≤ 0.2
ACIL	≤ 0.2
RPGH	≤ 0.2
GHGM	≤ 0.2

Variant	one-hybrid fitness for binding parS DNA
STLD	≤ 0.2
VVEF	≤ 0.2
RSDG	0.84
NYAN	≤ 0.2
CHHC	≤ 0.2
TDSS	≤ 0.2
APHL	≤ 0.2
RMGQ	≤ 0.2
YCSC	≤ 0.2
IPDQ	≤ 0.2
LVKV	≤ 0.2
QKMD	≤ 0.2
PQSH	≤ 0.2
IMPG	≤ 0.2
MAGT	≤ 0.2
YRRH	≤ 0.2
ATKE	≤ 0.2
NAVD	≤ 0.2

Reference: a collection of fitness landscapes (doi:10.1016/j.celrep.2020.107928)
